Some of the results follow.
test system: PfHDP1 homeodomain (GST-tagged); assay: gcPBM binding intensity (ln(normalized median fluorescence intensity)); higher = stronger DNA binding
Procedure, shortened: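 Binding of GST-tagged P. falciparum DNA-binding domains, expressed in E. coli and used at about 25 μg on average, was carried out for 1 h in 1× PBS containing 1% milk, 0.2 mg/ml BSA, 0.5% salmon testes DNA and 0.03% Triton X-100. The target was an Agilent 4 × 180k array of primer-extended double-stranded 36-bp intergenic genomic probes plus negative controls, read with Alexa488 anti-GST antibody at 488 nm. Binding intensity is the highest Masliner-normalised natural-log median intensity across replicate spots of either probe orientation.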

Sequence | gcPBM binding intensity (ln)
AAAAATTAAAAGAAAATACACACCTGTGGGTGCTTA [CACACA_site1988] | 5.37
TTATATAGGCAGATGGTGCATCTATTTATAAGCAAC | 9.03
AAAAAAAAAAGTTCTACACACACAAAAAAATATTTT [CACACA_site8725] | 6.61
ATATGAGAGAATAAAACACACAAAAAAAAAAAAAAA [CACACA_site2865] | 6.35
TAATAATCAAGTTAACGTACAAAATCATCTATAGAA [XGTACX_site5921] | 6.69
GTAGCCTTTCTTTATAAAGGCAAACAAACAAAAAAT [CACACA_negctrl_site1491] | 6.79
ATTTATTATATATACACACATACATATATATATATA [CACACA_site2159] | 9.1
ATAACAAAATAAAACACACACACAAATGTACTTATA [CACACA_site8768] | 6.58
TGCTTTTATTTCTTCACACATATGTAAAAAAAAGAA [CACACA_site5906] | 6.78
AAAAAATTCTGGTACTGTACACATTTTTTTAAATTT [XGTACX_site6904] | 6.31
ATTATGATTTTATAGAACTGAACATTTACATTAAAT [GTGCAC_negctrl_site192] | 6.29
TGCATACTAGCCAATTGTACATAATTTTATTTTAAA [XGTACX_site513] | 6.38
AAAATAAATCTGAATGGGGTATAATATATCTTTGTT [CACACA_negctrl_site744] | 6.39
AAAAGGAACAGACACACACACATATATATATATATA [CACACA_site3587] | 9.33
AAAAAAAAAAAAAGTACACACTTATAAAATATTATG [CACACA_site4639] | 6.24
TAAATTATCTTTTTATGTACTTATTTTTATTATTTT [XGTACX_site3158] | 6.27
CGCGCACCCAGACACACACACACACCGATATATATA [CACACA_site8687] | 6.9
TATTTTCAACATATTTGTACATATTTTATATTTTAA [XGTACX_site101] | 6.66
ATACGAAAAAAAAAAAGTACACAAAAATATCTACAT [XGTACX_site2051] | 6.19
GTTATACTCATATATACACACATATGTAAATATATA [CACACA_site5764] | 7.55
AAAATATGGATTCATGATATTAAATTTAATTTAATG [XGTACX_negctrl_site214] | 5.92
ATATAAATAATGTTGACACACACAATAATCTTATTA [CACACA_site9197] | 6.41
ATTATATTAGGTAATCAGTTAAATGTTTCCTTTTTA [CACACA_negctrl_site1229] | 6.06

Sequence | gcPBM binding intensity (ln)
TTTATATAATTTTGTGGTACTTATGTGTGTATATTA [XGTACX_site706] | 6.57
TATATTAAATGAAACAAACACACATAGCCTTTAAAT [CACACA_site1559] | 6.66
ATATCTACTATACAACTGAGTGTAGAAAAATTAAAC [CACACA_negctrl_site1211] | 6.74
ACTTTGCTCTACAATGCATGCTCATTTAACAAGGCA [TGCATGCA_site676] | 8.03
AAGAAAAAAAAAATTACACACTGCGGACATACACAA [CACACA_site4838] | 6.69
TCAATTTTACTTGTTTGTACATAAAATAATAAGGTT [XGTACX_site3732] | 6.25
AACATACACATATACACACACACATATATACCTATA [CACACA_site6643] | 7.76
ATATTTTGTTTTTGTTCTTTTTTTTTCTTTTTTTTT [CACACA_negctrl_site1342] | 6.18
AATTGGGAAGGACATGCATGAGAAATTAATATTGCA [TGCATGCA_site424] | 6.47
TATTATTATTATGGTAGTACATGTAGGTTATTAAAA [XGTACX_site5742] | 6.85
ATATTTATAAATTGCACACAAATAATAACATTCTAT [CACACA_site2357] | 10.4
TGTATAAATATATGCACACATATATATATTTATATA [CACACA_site3473] | 10
TCAATAAATGAATATGCATGCACGCTCTTTAGAGAT [TGCATGCA_site553] | 9.32
GAGAAAAAAAAAAAAAAACACACGGTACATTCAAAG [CACACA_site1767] | 6.11
TAATTCGCATTTTATACACACATTCGAACCTTTTTT [CACACA_site7549] | 7.08
AAATTAATACATTATTGTACTTTTCATGTGCAGAAA [XGTACX_site8284] | 8.11
CGGATGAATATATATGCACACATCTTTTGTAAAAAT [CACACA_site3190] | 9.53
CATATTACATTAAATTGTACATATATATATATATAT [XGTACX_site3295] | 9.47
TATTTATATGTATATACATGCACATATATATGAAAC [TGCATGCA_site1005] | 8.8
ATATATATATATATATGTACATATTTTTATTTATAC [XGTACX_site2858] | 9.32
TATGTAATGTTTACAACACACAAATTATAAATACAA [CACACA_site1771] | 6.31
ACCTATATACTAAATGCACACTTATATATTTATATA [CACACA_site5371] | 10.2
CTATTTTATATGTGCACACATATACTCAGACAAATA [CACACA_site4761] | 10.6

Sequence | gcPBM binding intensity (ln)
AAAAAAAAAAAAAAATGTACATATATATAAATATAT [XGTACX_site6768] | 6.44
ACTAATAATTTGTCGGTGCATAAAATTATTTTTATT [GTGCAC_site9840] | 10.2
CTACATAATAAAAAAAGTACATTCTAATAAATTGAC [XGTACX_site4504] | 6.05
ATATAAATTCAAATTACACACATTTATTTTTTTTAC [CACACA_site53] | 6.66
AATTTTATACGATAAACATGCAAATAAATAAATAAA [TGCATGCA_site227] | 7
TTTATTATATAAACATGTACACAATTTGGTATATTC [XGTACX_site3112] | 6.73
TATAATAATATTTATTGTACAATTAGTTTAATTCAT [XGTACX_site272] | 6.46
ACAGCCAATACGGAAACACACAAGTTATTTTATCAT [CACACA_site5507] | 6.48
AAAGAAAAAAAAAACACACACACACCCATTCAATAT [CACACA_site38] | 6.85
TATATGCCTATAAGAAGTACTGTGTAATGTAATATA [XGTACX_site8089] | 6.67
AAGAAAAATATATTTATATATATATATATTAAATAT [TGCATGCA_negctrl_site500] | 6.33
TAAACATAAATATGCACACATATACATATATTCATA [CACACA_site2667] | 9.75
ATTCATAAAAGTTGTACATGCAATTTTTTTTTTTTT [TGCATGCA_site270] | 6.63
ATTTTGTTATGAAACACACACATATATATATATATA [CACACA_site3650] | 9.42
AATATCTGTATATCCACACACATATATATATATATA [CACACA_site4987] | 9.51
TAATCGGTAATATTAACACACACATTTATATATATT [CACACA_site8274] | 6.74
TAATTTCTTATGTAGTGTACAAATAATATATGATAT [XGTACX_site597] | 6.39
AAAAGGAGAAATATTGCACACGTGCAAAATGGTATG [CACACA_site4300] | 11
AATATCACCACATTGTTACTATAATATATAAAAAAG [XGTACX_negctrl_site384] | 6.37
GTATTAATAAAAATACGTACTTATTATTTATAATAA [XGTACX_site7672] | 5.93
ATTATTCATATAACACGTACAAAACGAAAAACAAAT [XGTACX_site3873] | 7.23
ATGATAAAATTATGTAGTACATATTTGAATGTAAAT [XGTACX_site688] | 6.35
ATATATGTAACATATTGTACATATATGTATGTATGT [XGTACX_site3281] | 6.97

Sequence | gcPBM binding intensity (ln)
TATTATTATTATTACACACACAATTATATTTACCCC [CACACA_site503] | 7.46
TCGTGGTTTTAATAAGTGCGCAATTTAAATATTTTT | 9.8
GTATATATATATATATATATATATTTTTATTTATTT [CACACA_negctrl_site589] | 7.23
AATATAAGTAGTACAGTGCATATAATAATTAGAAGA [GTGCAC_site9485] | 9.29
CCATAAAAAGGATACACACACACACGCACATATATA [CACACA_site6550] | 7.22
TTGATTTATATTTAATGTACATTTTTACAGAAAATT [XGTACX_site2747] | 6.47
GATTAAACACAAAGAAGTACGGACATAAAAAAAAAA [XGTACX_site3686] | 6.12
ACATGTTAACTAAATGTACACACCTATGTTGATGTA [CACACA_site1821] | 6.59
TTTACTCCTACAACATGTACATAAAATAAATTTTTT [XGTACX_site5010] | 7.12
TTATTTACAACTTTTTTTTTTTTATTTTATTTTATT [CACACA_negctrl_site341] | 6.33
ACATAGCAATGTTTCACACACAAGAAAAAATACAAT [CACACA_site2379] | 6.98
GAAATGTGGTAATATACACACACGCATATATTTATA [CACACA_site6285] | 6.54
TTTGAACTCTTAAGTGGTACAAATTTGTATTTTCTC [XGTACX_site2322] | 6.52
TATAAATAAAAATATACACACTGTATTATTGTAATA [CACACA_site7721] | 6.24
AATGGAATATATATTTGTACATAAATATTATAATAA [XGTACX_site8524] | 6.57
ACATATTATATAACTCGTACTCGTAAAATATGTTGT [XGTACX_site2240] | 6.63
TTCTTCTGTTTTATTACACACCATTTTGCGTATACA [CACACA_site2070] | 7.65
GTTCTTTTATATATTTGTACATATTTATATATATTG [XGTACX_site4078] | 7.18
GTCATAAATGTACGCACACATACATAAACATATACA [CACACA_site650] | 7.24
CATTCTTGTTTAAAAAGTACATAAACATATATATAT [XGTACX_site1751] | 8.22

Reference: the supplement of paper PMC11417369
